{
  "source": "ChEMBL document CHEMBL1201862",
  "about": "“PubChem BioAssay data set” (2004)",
  "note": "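1) Cells in 96-well plates. 2) Compound, 48 h, 5 concentrations. 3) Linear interpolation between surrounding doses. 4) Unreached endpoint = highest concentration. The concentration for 50% growth inhibition is given as GI50.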 Activity calls are given as the source filed them. Cut-off read from the data, not from the text of the source: active = GI50 up to about 1.1 µM and inactive = higher.",
  "data": [
    {"tested_on": "NCI-H322M", "assay": "inhibition of tumour cell growth, NCI panel, 48 h", "values": [
      {"smiles": "O=C(CC1(O)C(=O)Nc2ccccc21)c1ccccc1O", "note": "(stereo not given)", "GI50": "inactive: > 100 µM"},
      {"smiles": "CN(Cc1cccc2ccccc12)Cc1cccc2ccccc12", "GI50": "inactive: > 100 µM"},
      {"smiles": "COc1ccc(-c2nc3c(C(=O)NCCN(C)C)cccc3c3ccccc23)cc1", "GI50": "inactive: 8.89 µM"},
      {"smiles": "O=C(O)C1C2OC(C(Br)C2Br)C1C(=O)O", "note": "(stereo not given)", "GI50": "inactive: > 100 µM"},
      {"smiles": "COc1cc(Nc2nc3c(N)cc(C(F)(F)F)cc3nc2-c2ccccc2)cc(OC)c1OC", "GI50": "inactive: 32.9 µM"},
      {"smiles": "OC(C1=C/C(=C\\c2ccncc2)c2ccccc21)c1ccncc1", "note": "(stereo not given)", "GI50": "inactive: 14.4 µM"},
      {"smiles": "C[C@@H]1CCC2[C@@H](C)[C@H](O[C@H]3O[C@@H]4O[C@@]5(C)CCC6[C@H](C)CCC([C@H]3C)[C@]64OO5)O[C@@H]3O[C@@]4(C)CCC1[C@@]23OO4", "note": "(stereo not given in full)", "GI50": "inactive: 5.71 µM"},
      {"smiles": "Cc1cc(O)c2c3c1C(=O)Oc1c(CO)c(O)c(C(=O)O)c(c1O3)C=NN=Cc1c3c(c(CO)c(O)c1C(=O)O)OC(=O)c1c(C)cc(O)c(c1O3)C=NN=C2", "GI50": "inactive: > 100 µM"},
      {"smiles": "CCCCCCCC1(N=[N+]=[N-])C(=O)Nc2ccccc2C1=O", "note": "(stereo not given)", "GI50": "inactive: 17.4 µM"},
      {"smiles": "Cc1ccc(C)c2c1C1CCCCC3(OCCCO3)C21O", "note": "(stereo not given)", "GI50": "inactive: > 100 µM"},
      {"smiles": "CN1C(=O)N(c2nc3ccccc3[nH]2)C(C)(C)C1=O", "GI50": "inactive: > 100 µM"},
      {"smiles": "COC(=O)CSC(=S)Nc1nnc(NC(=S)SCOC(C)=O)n1C(=S)SCC(=O)OC", "GI50": "inactive: > 100 µM"},
      {"smiles": "CCOC(=O)Nn1c(CC#N)nnc1Cc1ccccc1", "GI50": "inactive: > 100 µM"},
      {"smiles": "O=c1[nH]c2[nH]c(-c3ccc(Br)cc3)cc2c2ccccc12", "GI50": "inactive: 64.1 µM"},
      {"smiles": "Cc1c(C=C(C#N)C#N)c(=O)n(C)c(=O)n1C", "GI50": "inactive: > 100 µM"},
      {"smiles": "O=Cc1cc2sc(C=O)cc2s1", "GI50": "inactive: > 100 µM"},
      {"smiles": "Cc1cc(NS(=O)(=O)c2ccc(NC(=O)c3cccc4c(=O)c5ccccc5[nH]c34)cc2)no1", "GI50": "inactive: 23.1 µM"},
      {"smiles": "CC(C)=CC1C(COC(=O)c2ccccc2Cl)C1(C)C", "note": "(stereo not given)", "GI50": "inactive: > 100 µM"},
      {"smiles": "CC1NOC(=O)C1/N=N/c1cccc(Cl)c1", "note": "(stereo not given)", "GI50": "inactive: 90.4 µM"},
      {"smiles": "C=CCSc1nn(CC=C)cc2ncnc1-2", "GI50": "inactive: > 100 µM"},
      {"smiles": "CCCCN/C(=N/C#N)NCc1ccccc1", "GI50": "inactive: > 100 µM"},
      {"smiles": "C=C1CC(CN2CCC(=O)NC2=O)(c2ccccc2)OC1=O", "note": "(stereo not given)", "GI50": "inactive: 16.4 µM"},
      {"smiles": "C[N+](C)=c1nc(N2CCOCC2)ss1", "GI50": "inactive: > 100 µM"},
      {"smiles": "COC1=CC(=O)OC(/C=C(C)/C=C/C2=C(C)CCCC2(C)C)C1", "note": "(stereo not given)", "GI50": "inactive: > 100 µM"},
      {"smiles": "COC(=O)c1sc(=S)sc1SCc1cccc(CSc2sc(=S)sc2C(=O)OC)c1", "GI50": "inactive: > 100 µM"},
      {"smiles": "CC1OC(OC2C(O)COC(OC3C(C)OC(OC4C(OC(=O)[C@]56CCC(C)(C)C[C@@H]5C5=CCC7[C@@]8(C)C[C@H](O)[C@H](OC9OC(CO)C(O)C(O)C9O)[C@@](C)(CO)[C@@H]8CC[C@@]7(C)[C@]5(C)CC6)OCC(O)C4O)C(O)C3OC3OCC(O)(CO)C3O)C2O)C(O)C(O)C1O", "note": "(stereo not given in full)", "GI50": "inactive: 6.24 µM"},
      {"smiles": "Clc1ccc2c(Cl)nc(-c3ccccc3)nc2c1", "GI50": "inactive: 39.5 µM"},
      {"smiles": "O=[N+]([O-])c1cccc2nc3ccccc3c(NCCc3cccc[n+]3[O-])c12", "GI50": "active: < 0.0448 µM"},
      {"smiles": "NC(CSCc1ccccc1)C(=O)O", "note": "(stereo not given)", "GI50": "inactive: > 100 µM"},
      {"smiles": "CCC(=O)N/S(=N/S(=O)(=O)c1ccccc1)C(Cl)(Cl)Cl", "note": "(stereo not given)", "GI50": "inactive: > 100 µM"},
      {"smiles": "CCOC(=O)CNC(=O)c1nc[nH]c1/N=N/N(C)C", "GI50": "inactive: > 100 µM"},
      {"smiles": "COc1ccc(CCn2cnc3ccccc32)cc1", "GI50": "inactive: > 100 µM"},
      {"smiles": "CC1(Br)S(=O)(=O)OCCOS1(=O)=O", "GI50": "inactive: > 100 µM"},
      {"smiles": "CNC(=O)CCCNC(=O)CCCC(=O)N(C)C", "GI50": "inactive: > 100 µM"},
      {"smiles": "CCOP(=O)(OCC)C(c1ccc(F)cc1)N(C(=O)NC(F)(F)F)c1ccc(F)cc1", "note": "(stereo not given)", "GI50": "inactive: > 100 µM"},
      {"smiles": "Cc1cc(Cl)ccc1NC(=O)C(=O)Cc1nc2ccccc2o1", "GI50": "inactive: > 100 µM"},
      {"smiles": "O=C1C2C3SC(c4cc5ccccc5cc43)C2C(=O)N1c1ccccc1", "note": "(stereo not given)", "GI50": "inactive: > 100 µM"},
      {"smiles": "CCOP(=O)(OCC)C(Nc1ccc(C(=O)O)cc1)c1ccc(C(Nc2ccc(C(=O)O)cc2)P(=O)(OCC)OCC)cc1", "note": "(stereo not given)", "GI50": "inactive: > 100 µM"},
      {"smiles": "NC(=O)c1cc2ccc(O)cc2o/c1=N/c1ccccc1", "GI50": "inactive: 25.6 µM"},
      {"smiles": "C[N+](C)(C)C.FC(F)(F)C1(C(F)(F)F)O[SiH-]2(OC(C(F)(F)F)(C(F)(F)F)c3ccccc32)c2ccccc21", "GI50": "inactive: 13.3 µM"},
      {"smiles": "O=C(Nc1ccc(Sc2ccc(/N=N/c3c(O)c(S(=O)(=O)O)cc4cc(S(=O)(=O)O)ccc34)cc2)cc1)c1ccc(/N=N/c2c(O)c(S(=O)(=O)O)cc3cc(S(=O)(=O)O)ccc23)cc1", "GI50": "inactive: 32.3 µM"},
      {"smiles": "O=C1c2c(F)c(F)c(F)c(F)c2SC2=NCCN12", "GI50": "inactive: 16.9 µM"},
      {"smiles": "O=C1CC2(CCC(O)(c3cccs3)C(C(=O)c3cccs3)C2)C(=O)c2ccccc2N1", "note": "(stereo not given)", "GI50": "inactive: > 100 µM"},
      {"smiles": "O=C(/C=C/c1ccc(-c2ccccc2)cc1)c1ccccc1", "GI50": "inactive: 31.5 µM"},
      {"smiles": "COc1ccc2cc(CNCCCCCCNC(=O)Nc3cccc4ccccc34)ccc2c1", "GI50": "inactive: > 100 µM"}
    ]}
  ]
}
